Source: PubChem BioAssay AID488969 (Vanderbilt High Throughput Screening Facility, 2010)
Over roughly 110,000 compounds, “z-score” has its median near -0.1; the highest 2% begin near 2. Some of the results follow. Calls of active or inactive are those of the source.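 How the source made its calls: active means z-score in the third read window above 3 or below -3; inactive means the rest.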

biological target: Metabotropic glutamate receptor 8 (Rattus norvegicus) (UniProt P70579); test: mGluR8 Gi/Go-coupled signaling modulation – cell-based, rat, thallium flux, HTS, primary screen (AID 488969); conditions: HEK293 rat mGluR8, GIRK (G protein-gated inwardly rectifying potassium channel) thallium flux, FluoZin2; at 10 µM; stronger effect = higher value; submaximal glutamate (EC20) added with thallium
Chain of UniProt P70579 (P70579 whole entry, looked up): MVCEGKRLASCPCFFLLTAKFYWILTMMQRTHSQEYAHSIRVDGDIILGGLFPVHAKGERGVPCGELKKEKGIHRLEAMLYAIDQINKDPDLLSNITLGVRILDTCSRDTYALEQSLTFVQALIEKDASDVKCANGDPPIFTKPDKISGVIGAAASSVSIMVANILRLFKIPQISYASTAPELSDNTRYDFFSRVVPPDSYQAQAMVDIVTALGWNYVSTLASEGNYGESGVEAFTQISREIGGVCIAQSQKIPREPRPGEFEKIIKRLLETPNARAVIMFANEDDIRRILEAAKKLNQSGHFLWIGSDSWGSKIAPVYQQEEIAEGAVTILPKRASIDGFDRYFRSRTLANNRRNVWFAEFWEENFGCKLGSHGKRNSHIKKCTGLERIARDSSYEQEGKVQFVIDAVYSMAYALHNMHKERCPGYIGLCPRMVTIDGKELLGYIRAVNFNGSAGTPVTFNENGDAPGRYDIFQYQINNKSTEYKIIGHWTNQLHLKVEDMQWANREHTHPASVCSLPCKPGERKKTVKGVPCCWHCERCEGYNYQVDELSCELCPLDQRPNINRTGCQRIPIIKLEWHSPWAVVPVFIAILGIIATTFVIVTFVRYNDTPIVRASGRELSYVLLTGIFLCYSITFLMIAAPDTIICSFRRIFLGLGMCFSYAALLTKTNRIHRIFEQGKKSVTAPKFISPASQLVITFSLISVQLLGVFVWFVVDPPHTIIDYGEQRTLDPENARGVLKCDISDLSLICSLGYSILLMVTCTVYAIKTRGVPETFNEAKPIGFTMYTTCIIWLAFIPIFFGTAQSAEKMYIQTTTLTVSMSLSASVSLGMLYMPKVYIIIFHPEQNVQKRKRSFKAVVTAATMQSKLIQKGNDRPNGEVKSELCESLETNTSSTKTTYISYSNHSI

Structure (SMILES)	z-score
O=c1[nH]cc(COCc2ccccc2)c(=O)[nH]1	0.0732
O=C(NCCCN1CCOCC1)c1ccco1	0.0886
COc1cc(C2c3c(-c4ccccc4)n[nH]c3C(=O)N2c2ccccc2)ccc1O (stereo not given)	-1.29
N#CC1(c2ccc(NC(=O)c3ccccc3F)cc2)CCCC1	0.629
O=[N+]([O-])c1ccc(Sc2n[nH]c(-c3ccccc3)n2)nc1	-0.0866
CC(Oc1ccccc1)C(=O)Nc1ccccc1O (stereo not given)	-0.413
Cc1ccc(OCC(=O)N2N=C(C(F)(F)F)CC2(O)C(C)(C)C)cc1C (stereo not given)	active: 3.56
O=C1c2ccccc2C(=O)N1c1n[nH]c(CCc2ccccc2)n1	-0.161
COc1ccc(/C=N/Nc2ncnc3scc(-c4ccccc4)c23)cc1OC	-1.18
CCc1ccc(N2C(=O)C3C4CCC(C4=C(C)C)C3C2=O)cc1 (stereo not given)	-0.173
COc1cccc(CC(NC(C)=O)C(=O)NC2CCN(S(=O)(=O)c3cccc4ccccc34)CC2)c1 (stereo not given)	0.0112
O=C(NCC1CCCO1)c1onc(CSc2ccc(F)cc2)c1C(=O)O (stereo not given)	-0.16
Cc1cc(NC(=O)C23CCC(C)(c4nc5cc(Cl)c(Cl)cc5nc42)C3(C)C)no1 (stereo not given)	-0.019
CCOc1ccc(C2NC(=O)C(C#N)=C(S)N2c2ccc(OC)cc2)cc1OC (stereo not given)	-0.527
COc1cccc2cc(C(N)=O)/c(=N/NC(=O)COc3ccc(Cl)cc3)oc12	-0.725
CCN(C(=O)c1cc(Cl)ccc1OC)c1ccccc1C	-0.578
O=C(Cn1[nH]c(=O)c2ccccc2c1=O)Nc1ccc(-c2nnc3n2CCCCC3)cc1	-0.0205
CCCC(=O)Nc1cc(C)c(NC(=O)c2ccccn2)cn1	0.64
CCOc1cc(S(=O)(=O)N2CCC(c3nc4ccccc4s3)CC2)c(OCC)cc1S(=O)(=O)N1CCCCC1	0.223
N#Cc1nc(Cc2ccccc2)oc1NCc1ccccc1Cl	1.31
Cc1ccc(CSc2nc3c(c(=O)[nH]c(=O)n3C)n2CCC(C)C)cc1	-0.092
COc1cc(/C=N/n2nnnc2N)ccc1OCc1c(C)no[n+]1[O-]	-0.217
Cc1cc(N2CCN(c3ccccc3)CC2)nc(NCc2ccccc2)n1	3
O=C(NCCOCc1ccc(Cl)cc1)c1ncn[nH]1	-0.386
CC(=O)NC1C(Oc2ccc(C)cc2)OC2COC(c3ccco3)OC2C1O (stereo not given)	-0.122
C=CCOc1ccc2cccc(/C=N/NC(=O)c3cc4cc([N+](=O)[O-])ccc4s3)c2c1	-0.78
C#CCSc1nnc(-c2sc3ccccc3c2Cl)o1	0.182
Cn1ccnc1C(=O)c1cc(=O)c2ccccc2o1	0.0233

Structure (SMILES)	z-score
CCN(CC)CCCNC(=O)c1cc(-c2ccc(Cl)cc2)on1	1.7
Cn1c(=O)[nH]c(=O)c2c1nc(N1CCCCC1)n2CCCSc1nc2ccccc2s1	0.88
OCCCc1nc2n(n1)C(c1ccccc1Cl)C=C(c1cccs1)N2 (stereo not given)	-1.48
CC(C)c1ccc(NC(=O)NC2CCN(CC(=O)Nc3cccc4ccccc34)CC2)cc1	-0.494
c1ccc(-c2cn3nc(-c4ccccc4)c(-c4ccccc4)nc3n2)cc1	-1.03
Nc1ccc2oc(-c3ccc4nc[nH]c4c3)nc2c1	-0.297
O=C(CO/N=C1\CCCc2nonc21)Nc1ccccc1Cl	0.126
O=C(NCc1ccccc1)C1CC2CCCC(C1)C2=O (stereo not given)	0.256
COc1ccc(Oc2c(C)oc3c(CN4CCOCC4)c(O)ccc3c2=O)cc1	-0.179
Cc1ccc(-c2cc3nn(-c4ccccc4)c(N)c3c(=O)o2)cc1	-0.23
Cc1ccc(Nc2c(N)c(=O)oc3ccccc23)cc1	-0.337
COc1cccc(CNc2ccc(F)c(Cl)c2)c1OC	-0.178
Cc1cc(C)nc(/N=C(/NC(=O)Nc2cccc(Cl)c2)Nc2ccccc2)n1	-0.371
CCOC(=O)CN1C(=O)C(C)(C)Oc2ccc(C(=O)NC(C)(C)CC)cc21	0.0354
COc1cc(SC)ccc1C(=O)Nc1ccc(C)cc1C	-0.165
CCCc1cc(C(=O)Nc2cccnc2Cl)no1	-0.208
COc1cc(S(=O)(=O)NCC2CCCO2)ccc1Br (stereo not given)	-0.194
CCN(CC)CCNc1nc(-c2ccco2)c2c(c1C#N)CC(C)(C)OC2	1.96
Cc1cc(C)c2[nH]c(=O)c(CN(CC3CCCO3)C(=S)Nc3ccccc3)cc2c1 (stereo not given)	-0.0101
CCC(=O)/C=C1/Sc2ccc(OC)cc2N1CC	0.259
O=C(C1=NN[C@@H]2C(=O)N(c3cccc(F)c3)C(=O)[C@H]12)c1ccc2ccccc2n1	-0.0642
COc1cccc(C2CC(c3cccs3)=NN2C(=O)CSc2nc3ccccc3s2)c1OC (stereo not given)	-0.162
O=C(CSc1nnc(-c2ccccc2)n1Cc1ccccc1)N1CCCC1	0.192
CCn1cc(Br)c(C(=O)Nc2ccc(Cl)c(Cl)c2)n1	0.0527
Cc1oc(-c2cccs2)nc1CSCC(=O)NC1CC1	0.245
CCc1ccccc1NS(=O)(=O)c1ccc2c(c1)NC(=O)CC(=O)N2	-0.0262
COc1nc(-c2ccccc2)ccc1-c1noc(-c2cccs2)n1	-0.947
